According to PubChem BioAssay AID504339 (National Center for Advancing Translational Sciences (NCATS), 2011):
Screen size: about 390,000 compounds; about 17,000 (4.4%) were called active. The inconclusive results got no clear call from the source; some entries with a clear call stand among them for comparison. Calls follow the shape of the dose curve; as a rule, active = well fitted inhibition curve with a large enough effect; inconclusive = small, poorly fitted or top-dose-only effect; inactive = no such curve, though single readings can be large or run the other way. Where the call is inconclusive, the potency comes from a doubtful curve fit.

Each molecule was assayed against Lysine-specific demethylase 4A (Homo sapiens) (UniProt O75164) (assay: qHTS Assay for Inhibitors of JMJD2A-Tudor Domain). Settings: AlphaScreen JMJD2A-Tudor / H3K4me3 peptide binding; activity change, negative = inhibition: at 114 µM (top of the series).
% is scaled to controls: 0 for no effect and ±100 for the full control effect; potency is read from the fitted curve at half-maximal effect; tags tell the direction and shape of the fitted curve.
Also: nearly all actives have a fitted effect of over 50% in size.

UniProt O75164, sequence (O75164 whole entry, looked up, the tested form may be a part): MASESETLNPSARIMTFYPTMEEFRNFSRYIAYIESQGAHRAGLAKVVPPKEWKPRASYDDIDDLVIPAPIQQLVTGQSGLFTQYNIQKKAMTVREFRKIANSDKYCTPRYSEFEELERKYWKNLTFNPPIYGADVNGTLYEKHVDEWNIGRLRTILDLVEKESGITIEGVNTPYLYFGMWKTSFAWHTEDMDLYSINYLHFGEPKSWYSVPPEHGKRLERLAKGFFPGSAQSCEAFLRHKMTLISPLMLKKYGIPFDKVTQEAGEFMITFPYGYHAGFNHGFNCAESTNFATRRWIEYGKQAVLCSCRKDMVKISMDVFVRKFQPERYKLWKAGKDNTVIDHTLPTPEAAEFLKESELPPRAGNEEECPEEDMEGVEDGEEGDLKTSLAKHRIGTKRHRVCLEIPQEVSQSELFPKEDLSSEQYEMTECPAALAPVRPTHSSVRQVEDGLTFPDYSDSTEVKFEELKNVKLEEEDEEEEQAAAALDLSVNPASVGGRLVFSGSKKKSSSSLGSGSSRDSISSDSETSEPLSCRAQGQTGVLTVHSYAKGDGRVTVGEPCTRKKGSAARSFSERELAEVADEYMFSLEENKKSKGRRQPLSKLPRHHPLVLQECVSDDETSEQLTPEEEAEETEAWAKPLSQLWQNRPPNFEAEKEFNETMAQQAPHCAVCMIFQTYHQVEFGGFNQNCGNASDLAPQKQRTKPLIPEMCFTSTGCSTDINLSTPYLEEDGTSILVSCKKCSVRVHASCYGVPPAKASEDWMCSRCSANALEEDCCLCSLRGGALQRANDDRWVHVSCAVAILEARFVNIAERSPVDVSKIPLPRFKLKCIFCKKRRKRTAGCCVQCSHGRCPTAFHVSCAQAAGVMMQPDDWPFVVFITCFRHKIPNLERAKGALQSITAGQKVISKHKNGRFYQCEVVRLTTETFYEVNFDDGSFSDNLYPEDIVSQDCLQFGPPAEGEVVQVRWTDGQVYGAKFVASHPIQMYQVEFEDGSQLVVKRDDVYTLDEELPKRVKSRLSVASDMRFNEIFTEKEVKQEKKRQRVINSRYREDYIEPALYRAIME

Potency, active:
COc1ccc(CCN(C)C(=O)C2CCN(Cc3ccccc3)CC2)cc1OC 22.4 µM
CN1CCN(CC(=O)N2c3ccc(S(=O)(=O)NCCNC(=O)OC(C)(C)C)cc3C(=O)Nc3cccnc32)CC1 14.1 µM
O=C(CCNc1ccc(Br)cc1)c1cccc([N+](=O)[O-])c1 20 µM
O=c1c2cc(N3CCOCC3)ccc2[nH]c(=S)n1CCCN1CCCC1 79.4 µM
O=C(CNCCC1=CCCCC1)Nc1ccc(N2CCCCCC2)cc1 20 µM
COC(=O)c1cccc(-c2ccc(C(c3c(C)[nH][nH]c3=O)c3c(C)[nH][nH]c3=O)o2)c1 56.2 µM
Cc1occc1-c1n[nH]c(=S)n1-c1ccccc1 7.08 µM
COc1ccc(NCc2cccn2-c2nnc(N3CCCCCC3)s2)cc1 44.7 µM
Cc1cccc(OCCNc2cc(N3CCN(C)CC3)ccc2[N+](=O)[O-])c1 39.8 µM
Cc1nc(NC(=O)c2ccccc2)sc1-c1csc(Nc2ccc(C(=O)O)cc2)n1 22.4 µM
CCC(=O)N1CCCc2cc(S(=O)(=O)N3CCC(C(=O)NCc4ccc(F)cc4)CC3)ccc21 56.2 µM
CCCNC(=O)c1ccc(N2CCC3(CC2)CC(c2ccccc2)=NO3)c(NC(=O)c2cccc(OC)c2)c1 56.2 µM
CNc1ccc(Br)cc(C(=O)/C=C/c2cccc(OC)c2)c1=O 44.7 µM

Potency, inconclusive:
Cc1ccc(OCc2cc(C(=O)N3CCN(C4CCCCC4)CC3)no2)cc1C 35.5 µM [inhibitor, partial curve]
CCN(CC)CCN1c2ccccc2Sc2ccc3ccccc3c21 39.8 µM [inhibitor, full curve]
Cc1cccc(NC(=S)N/N=C/c2c[nH]c3ccccc23)c1 28.2 µM [inhibitor, single point]
O=[N+]([O-])c1ccccc1S(=O)(=O)N1CCN(c2ccc(F)cc2)CC1 50.1 µM [inhibitor, partial curve]
Cc1ccccc1NC(=O)CN1C(=O)COc2ccc(Cl)cc21 22.4 µM [inhibitor, full curve, poor fit]
Cc1ccc(NC(=O)NC2=N/C(=C(/C#N)C(=O)N3CCCC3)c3ccccc32)cc1 15.8 µM [inhibitor, partial curve]
COc1cccc(C(=O)C2CCCN(Cc3cccn3-c3cccnc3)C2)c1 (stereo not drawn) 100 µM [inhibitor, partial curve]
Cc1ccc(C2CC(=O)Nc3cc4c(cc32)OCCO4)cc1Br (stereo not drawn) 14.1 µM [inhibitor, full curve, poor fit]
O=C1CCCC2=C1C(c1ccccc1)CC(=O)N2c1ccc(F)cc1F (stereo not drawn) 50.1 µM [inhibitor, full curve, poor fit]
C=CCOc1ccc2ccccc2c1CNn1c(C)n[nH]c1=S 39.8 µM [inhibitor, single point]
Cc1cccc(Nc2nnc(SCC(=O)Nc3ccccc3[N+](=O)[O-])s2)c1C 22.4 µM [inhibitor, partial curve]
Cc1cccc(N2CCN(C(=O)c3ccccc3NC(=O)C3=CSCCO3)CC2C)c1 (stereo not drawn) 15.8 µM [inhibitor, full curve]
COc1ccc(Nc2c3c(nc4ccccc24)CCC3)cc1Cl 56.2 µM [inhibitor, partial curve]
COc1ccc(OC)c(CNC(=O)Nc2cn(CC(C)C)c(=O)c3ccccc23)c1 28.2 µM [inhibitor, full curve, poor fit]
CCOC(=O)/C(C#N)=C/C=C1\C=Cc2ccccc2N1CC 15.8 µM [inhibitor, partial curve]
CC(C)c1cc(C(=O)O)n(-c2ccccc2)n1 89.1 µM [inhibitor, single point]
CC1=CC(C)(C)Nc2ccc(OC(=O)CN3C(=O)C4CCCCC4C3=O)cc21 (stereo not drawn) 56.2 µM [inhibitor, partial curve]
Nc1nc(NC(=O)c2ccc(F)cc2)ns1 20 µM [inhibitor, full curve]
COc1ccc(-c2noc(-c3ccc(N4CCOCC4)c([N+](=O)[O-])c3)n2)cc1 89.1 µM [inhibitor, partial curve]
O=C1NC(=S)NC1=Cc1ccc2c(c1)CCC2 63.1 µM [inhibitor, partial curve, poor fit]
O=C(COC(=O)c1cccnc1Cl)Nc1ccc(N2CCCCC2)cc1 28.2 µM [inhibitor, partial curve]
O=C(CSc1nc(O)cc(=O)n1-c1ccccc1)NCc1ccccc1 89.1 µM [inhibitor, partial curve]
Nn1c(SCc2csc(-c3ccccc3)n2)nnc1-c1cccs1 89.1 µM [inhibitor, single point]
COc1ccc(NC(=O)CSC2=Nc3ccccc3C3=NC(CC(=O)NCCc4ccccc4)C(=O)N23)cc1 (stereo not drawn) 56.2 µM [inhibitor, partial curve]
Cc1cc(C)n(-c2ccc(Cl)c(C(=O)O)n2)n1 25.1 µM [inhibitor, partial curve, poor fit]
CC(=O)c1ccc(NC(=O)C2CCN(c3nnc(C)c4c(C)n(-c5ccccc5)nc34)CC2)cc1 56.2 µM [inhibitor, partial curve]
COc1ccc(/C=N/NC(=S)Nc2ccccc2[N+](=O)[O-])cc1O 39.8 µM [inhibitor, full curve, poor fit]
CC1CCc2[nH]c3ccc(C(=O)N(C)CC(=O)Nc4ccccc4Cl)cc3c2C1 (stereo not drawn) 39.8 µM [inhibitor, partial curve]
O=C(Oc1ccc(Br)cc1C(=S)N1CCCCC1)c1cc([N+](=O)[O-])cc([N+](=O)[O-])c1 50.1 µM [inhibitor, partial curve]
CC12C(=O)N(Cc3ccco3)C(=O)C1C1c3ccccc3C2c2ccccc21 (stereo not drawn) 79.4 µM [inhibitor, single point]
CCOc1ccccc1NC(=O)CCc1c(C)nn(-c2ccc(N3CCCCC3)nn2)c1C 12.6 µM [inhibitor, full curve, poor fit]
COc1ccccc1-c1noc(-c2cc(OC)c(OC)c(OC)c2)n1 22.4 µM [inhibitor, single point]
COc1ccc(-c2csc(NC(=O)CSCc3c(C)noc3C)n2)c(OC)c1 50.1 µM [inhibitor, partial curve]
COc1ccc(NC2=C3CCCC=C3N(c3ccc(OC)cc3)C2=O)cc1 22.4 µM [inhibitor, full curve]
COc1ccc(NC2=CC(c3ccc(OC)c(OC)c3)N(c3ccc(OC)cc3)C2=O)cc1 (stereo not drawn) 11.2 µM [inhibitor, partial curve]
CCOC(=O)c1c(C)[nH]c(C)c1C(=O)COC(=O)/C=C/c1ccc(OC(F)F)cc1 35.5 µM [inhibitor, single point]
CC(/C=N/n1c(C2CCCCC2)n[nH]c1=S)=C\c1ccccc1 22.4 µM [inhibitor, full curve]
Cc1oc2ccc(OS(C)(=O)=O)cc2c1C(=O)OC(C)C 15.8 µM [inhibitor, full curve, poor fit]
COc1cccc(NC(=O)CN(C)C(=O)CN2C(=O)NC(C)(c3ccc4ccccc4c3)C2=O)c1 (stereo not drawn) 2.82 µM [inhibitor, full curve, poor fit]

Activity change, negative = inhibition, inactive:
C[N+]1(CCOC(=O)C2(c3ccccc3)CCCC2)CCCCC1 -15.6%
O=C(Nc1cc(-c2nc3ncccc3o2)ccc1Cl)c1ccc2c(c1)OCO2 -18.4%
CN(CC(=O)Nc1ccccc1Cl)C(=O)COC(=O)c1ccc(-c2ccc(O)cc2)cc1 -8.17%
COc1cc(CNCCN2CCOCC2)ccc1OCc1ccc(Cl)cc1Cl -19.9%
CCOc1ccc(NC(=O)Cn2c(=O)n(Cc3ccc4c(c3)OCO4)c(=O)c3ccc(C(=O)NC4CCCCC4)cc32)cc1 -11.7%
Cc1cccc(NC(=O)Cn2c(=O)n(Cc3ccc4c(c3)OCO4)c(=O)c3oc4ccccc4c32)c1C -10.6%
CC(C)(C)C1CCc2c(sc(NC(=O)C3c4ccccc4Oc4ccccc43)c2C(N)=O)C1 (stereo not drawn) -29.9%
CCn1cc(S(=O)(=O)c2cc(C)cc(C)c2)c(=O)c2cc(F)c(N3CCCCC3)cc21 -17.2%
CCc1ccc(-n2nc(CO)c(C(=O)NCCOC)n2)cc1 -5.97%
COc1ccc(CCN(C)CCC(=O)Nc2cc(C)ccc2C)cc1OC -21.3%
COC(=O)c1scc(C)c1S(=O)(=O)Nc1ccc(C)cc1 -12.5%
O=C(Nc1ccc(Cl)c(S(=O)(=O)N2CCCCC2)c1)c1cccnc1 -19.8%
COc1ccccc1N1C(=O)C2C(c3ccc(F)cc3)NN(C(=O)c3ccc(C)cc3)C2C1=O (stereo not drawn) -16%
COCCNC(=O)C(c1ccc(F)cc1)N(C(=O)CCC(=O)Nc1ccccn1)c1cccc(C)c1 (stereo not drawn) -16.7%
CCN(C(=O)COC(=O)CCOc1ccccc1C)c1c(N)n(Cc2ccccc2)c(=O)[nH]c1=O -15.8%
CC(=NCCN1CCNCC1)C1=C(O)CC(C)(C)CC1=O -21.5%
